Here are results for 91 compounds from PubChem BioAssay AID463173 (ICCB-Longwood Screening Facility, Harvard Medical School, 2010).

Out of some 52,000 compounds screened, about 4,300 (8.3%) were called active. No stated cut-off is given here; in the data, active means survival mostly below about 52% (no sharp cut-off); inactive means mostly above about 56%. Some of the results follow.

The assay deals with DeltatarO mutant. Briefly: S. aureus survival, RN4220 and DeltatarO strains – OD600, teichoic acid synthesis inhibitors, primary screen (AID 463173). To be noted: S. aureus RN4220 wild type/DeltatarO growth, OD600, 18 h, hits give low values, screened at 18.75 µg/mL (by protocol).
Consider `COc1ccc(C2C=C(c3cccc(OC)c3)Nc3c(C(=O)Nc4ccccc4)cnn32)cc1` (stereo unspecified), for which the survival is inactive: 52%.

For the compound `Cc1ccn2c(Nc3ccc(C(C)C)cc3)c(-c3cccs3)nc2c1`, the survival was inactive: 66%.

`CC(=O)Nc1cccc(NC(=O)CN2C(=O)CCSc3ccccc32)c1`: the survival was inactive: 95%.

Consider `Cc1nc2nc(NC(=O)c3ccccc3F)[nH]n2c(=O)c1Cl`, for which the survival was inactive: 93%.

In the case of `Cc1cccc(N2CCN(C(=O)c3cccn4c(=O)c5cc(Cl)ccc5nc34)CC2C)c1` (stereo unspecified), the survival is inactive: 66%.

With `COc1ccc(CNC(=O)CN2C3CCCC2CC(=O)NC3)cc1` (stereo unspecified), the survival is inactive: 93%.

`CC(=O)N1c2ccc(S(=O)(=O)NCC3CCC(C(=O)Nc4ccc(C)cc4)CC3)cc2CC1C` (stereo unspecified): the survival is inactive: 70%.

On to `CN(Cc1ccco1)C(=O)c1ccc2c(c1)N(Cc1ccccc1F)C(=O)c1ccccc1S2`, for which the survival is inactive: 115%.

As to `COc1ccccc1-c1nnc(SCC(=O)Nc2ccccc2F)o1`, the survival is inactive: 79%.

With `Cc1ccc(Cl)cc1NC(=O)CCC(=O)N1CC(C)Sc2ccccc21` (stereo unspecified), the survival was active: 44%.

For the compound `CCC1CN(C(=O)N2CCC(C(=O)N3CCN(c4cccc(C)c4C)CC3)CC2)c2ccccc2O1` (stereo unspecified), the survival was inactive: 62%.

As to `CC(C)(C)Nc1nc(OCC#N)nc(N2CCOCC2)n1`, the survival was inactive: 113%.

With `COc1cc(CNC(=O)c2ccc3c(c2)N(C)C(=O)C2CCCCN32)cc(OC)c1OC` (stereo unspecified), the survival is inactive: 69%.

On to `COc1ccc2c(c1)N(C)/C(=c1/s/c(=C3/C(=O)N(c4ccccc4)N=C3C)n(C)c1=O)S2`, for which the survival was inactive: 88%.

Consider `CC(=O)N1CCc2c(sc3c2c(=O)n(-c2ccccc2)c(=O)n3CC(=O)Nc2ccccc2)C1`, for which the survival is inactive: 91%.

For the compound `CCc1ccc(NC(=O)CN2CCCN(Cc3cccc(Cl)c3)S2(=O)=O)cc1`, the survival was inactive: 100%.

Turning to `COC(=O)c1cc2sc(C)cc2n1CC(=O)Nc1ccc(C)c(C)c1`, the survival is inactive: 64%.

Take `Cc1ccc(C2=C(CC(=O)O)C(=O)CC2)cc1`: the survival was inactive: 101%.

Regarding `CCOC(=O)c1ccc(N2C(=O)CC(NC(C)(C)C)C2=O)cc1` (stereo unspecified), the survival was inactive: 63%.

Regarding `COc1ccc2c(c1)c1c(c(=O)n(-c3ccc(F)c(Cl)c3)c(=O)n1CC(=O)N1CCCC1)n2C`, the survival is inactive: 94%.

`Cc1c2cnn(-c3ccccc3)c(=O)c2c(C)n1CC(=O)NCCc1ccc(Cl)cc1`: the survival is inactive: 102%.

Consider `O=C(NC1CCCCC1)/C(=N\O)c1ccccn1`, for which the survival was inactive: 97%.

Take `O=C(CCC(=O)N1Cc2ccccc2Oc2ncccc21)Nc1ccc(Cl)cc1`: the survival is active: 37%.

As for `COc1ccc(-c2nn(CC(=O)NC3CCCC3)c3c2cnc2ccc(F)cc23)cc1`, the survival is active: 46%.

`CCOc1ccccc1-n1ccnc(NCc2ccc(F)cc2)c1=O`: the survival is inactive: 103%.

On to `CCOc1ccc(N(CC(=O)Nc2ccccc2)S(C)(=O)=O)cc1`, for which the survival was inactive: 81%.

For `Cc1cccc(NC(=O)Nc2nnc(N(C)C3CCCCC3)s2)c1C`, the survival was inactive: 106%.

For `Cc1nn(CC(=O)NCc2ccco2)c(=O)c2cc3ccccc3n12`, the survival was inactive: 92%.

For `CCc1ccccc1N(C)C(=O)c1cn(CC(C)C)c(=O)c2cc(OC)c(OC)cc12`, the survival was inactive: 73%.

As to `O=C(CSc1nc2nccnc2c(=O)n1CCc1c[nH]c2ccccc12)Nc1ccccc1F`, the survival is active: 46%.

On to `CCN(CC)c1nc(-c2ccc(C(C)(C)C)cc2)nc2ccccc12`, for which the survival was active: -1%.

Regarding `COc1ccc2c(CNCC(C)c3ccccc3)c(C(=O)O)n(Cc3ccc(F)cc3Cl)c2c1` (stereo unspecified), the survival was inactive: 107%.

Turning to `COc1ccc(/C=C(\C#N)c2nc(-c3cc(Cl)ccc3OC)cs2)cc1`, the survival was inactive: 91%.

In the case of `O=C1CS(=O)(=O)C2(C(=O)N(Cc3cccc(F)c3)c3ccccc32)N1c1ccccc1` (stereo unspecified), the survival was inactive: 99%.

Consider `CC1CCN(S(=O)(=O)c2ccc3c(c2)N(CC(=O)NCc2ccccc2)C(=O)CO3)CC1`, for which the survival is inactive: 116%.

As for `COC(=O)c1ccc(Cl)cc1NC(=O)N1CC=C(c2c[nH]c3ccccc23)CC1`, the survival is inactive: 67%.

As to `COc1ccc(OC)c(NC2=C(c3ccccc3)C(=O)c3ccccc32)c1`, the survival is inactive: 62%.

As to `COc1ccc(N2CCN(C(=O)c3cc4c(-c5ccccc5F)nn(C)c4s3)CC2)cc1`, the survival was inactive: 65%.

Take `O=C(Cn1ncc2c(=O)oc3ccccc3c21)Nc1cc(F)ccc1F`: the survival is inactive: 78%.

On to `Cc1ccc(C2CC(=O)N(Cc3ccccc3F)c3c2c(C)nn3-c2nc(C)cc(C)n2)cc1` (stereo unspecified), for which the survival was inactive: 71%.

Turning to `CCn1cc(C(=O)N2CCN(c3cccc(Cl)c3)CC2)c(=O)c2cc(S(=O)(=O)N3CCOCC3)ccc21`, the survival is inactive: 81%.

Turning to `Cc1ccc(Cc2nc3ccccc3nc2SCC(=O)N2CCc3ccccc32)cc1`, the survival was inactive: 93%.

For `CCOc1ccc(CCNC(=O)CCc2c(C)nc3c(c(C)nn3-c3ccccc3)c2C)cc1OCC`, the survival is inactive: 50%.

For the compound `COc1cc(OC)c(NC(=O)c2c(C)oc3ncn(C)c(=O)c23)cc1Cl`, the survival was inactive: 103%.

For the compound `CCOc1ccc(NC(=O)c2ccc(NC(=O)CCS(=O)(=O)c3cccs3)cc2)cc1`, the survival is inactive: 68%.

Take `COc1ccc(NC(=O)c2nnn(Cc3ccccc3C)c2N)c(OC)c1`: the survival was inactive: 71%.

In the case of `O=C(CSc1nc2ccccc2o1)NC1CC1`, the survival was inactive: 95%.

`Cc1nn(-c2ccc(F)cc2)c(-n2cccc2)c1C(=O)N1CCN(c2ccc(F)cc2)CC1`: the survival was inactive: 80%.

Consider `Cc1ccc(C(=O)Nc2c(-c3ccccc3)nc3ccccn23)cc1C`, for which the survival is active: 34%.

Regarding `O=C(CSc1ccc(-c2ccccn2)nn1)Nc1ccc(F)c(F)c1`, the survival was active: 27%.

Turning to `CN(C)CCNC(=O)C1CCN(c2nc3ccccc3[nH]2)CC1`, the survival was inactive: 60%.

For the compound `COc1ccc(NC(=O)Nc2nnc(N3CCCCCC3)s2)cc1`, the survival is inactive: 72%.

With `Cc1c(NC(=O)c2cc([N+](=O)[O-])ccc2N2CCOCC2)cccc1-c1nc2ccccc2o1`, the survival is inactive: 50%.

Consider `Cc1ccc(NC(=O)c2nc(S(C)(=O)=O)ncc2N(Cc2ccccc2)Cc2ccco2)c(C)c1`, for which the survival was inactive: 53%.

Consider `CSc1nc2sc3c(c2c(=O)n1-c1ccc(C)c(Cl)c1)CCN(C(C)=O)C3`, for which the survival is inactive: 63%.

For `CCC(C)NC(=O)CSc1nc2ccc(C(C)C)cc2cc1C#N` (stereo unspecified), the survival was inactive: 91%.

`COC(=O)c1ccc(NC(=O)CCc2c(C)nn(-c3ccc(N4CCCC4)nn3)c2C)cc1`: the survival was inactive: 99%.

Take `CCOC(=O)c1cnn(-c2ccc(OC)cc2)c1C1CCN(C(=O)OC(C)(C)C)CC1`: the survival is inactive: 39%.

In the case of `Cc1cccc(-c2nc(SCc3ccc(Br)cc3)n3[nH]c(=O)cc3n2)c1`, the survival is inactive: 92%.

As to `COc1ccccc1N1CCN(C(=O)CCc2c(C)nn(-c3ccc(N4CCCC4)nn3)c2C)CC1`, the survival was inactive: 67%.

Regarding `O=C(CN1CCN(Cc2ccccc2)CC1)N1CCCCCC1`, the survival was inactive: 95%.

For the compound `CC1CCCCN1c1csc2ccc(F)cc2c1=O` (stereo unspecified), the survival is inactive: 89%.

For the compound `Cn1nc(C(=O)Nc2cc(F)ccc2F)c2c1-c1ccccc1SC2`, the survival was inactive: 90%.

With `COc1ccc(-c2cc(C(F)F)n3ncc(C(=O)Nc4cc(C)on4)c3n2)cc1`, the survival is inactive: 85%.

Turning to `O=C(CSc1ccc(-c2ccccc2)nn1)N1CCCC1`, the survival was inactive: 92%.

With `COc1cc(NC(=O)c2nnn(Cc3ccc(F)cc3)c2N)cc(OC)c1`, the survival is inactive: 67%.

Regarding `Cc1ccccc1C(=O)N1CCC(c2nc3ccccc3s2)CC1`, the survival was inactive: 75%.

Turning to `CCOc1ccc(CCNC(=O)c2ccc3c(c2)c(C)c(C)n3C)cc1`, the survival was inactive: 77%.

For `COC(=O)c1ccc(NC(=O)CSc2nc(=O)n(Cc3ccco3)c3c2CCC3)cc1`, the survival was inactive: 113%.

For the compound `COc1cccc(CNc2cccc3cccnc23)c1O`, the survival was inactive: 97%.

Regarding `COc1cc(C(=O)N(Cc2ccc(C(C)C)cc2)C2CCS(=O)(=O)C2)cc(OC)c1OC` (stereo unspecified), the survival was active: 46%.

Take `COC(=O)CSc1nc(-c2ccccc2)cc(C)c1C#N`: the survival was inactive: 90%.

Take `Cc1cc(NC(=O)CN2C(=O)C(C)(C)c3ccccc32)ccc1Br`: the survival was inactive: 88%.

For `Cc1cccc(OCC(=O)Nc2ccc(S(N)(=O)=O)cc2)c1C`, the survival was inactive: 93%.

In the case of `CCN(C(=O)CSc1nc2ccccc2n1CC(=O)Nc1cccc(C#N)c1)c1ccccc1`, the survival was inactive: 122%.

For the compound `Cc1ccc(CNC(=O)CC2Oc3ccccc3NC2=O)cc1` (stereo unspecified), the survival was inactive: 86%.

As to `COc1cc(C(=O)N2CCCN(c3nc4cc(C)ccc4cc3C#N)CC2)cc(OC)c1OC`, the survival was inactive: 91%.

With `CCOC(=O)C1CCCN(C(=O)Cn2ncc3c([nH]c4ccccc43)c2=O)C1` (stereo unspecified), the survival is inactive: 83%.

Regarding `COC(=O)CC(=O)CSc1nc(C)cc(C(F)(F)F)c1C#N`, the survival is inactive: 83%.

For `CCC(=O)N1CCc2cc(Br)cc(S(=O)(=O)NCCc3ccc(OC)c(OC)c3)c21`, the survival was inactive: 52%.

With `O=C(NCCCc1nc2ccccc2n1Cc1ccccc1Cl)C1CCCCC1`, the survival is inactive: 80%.

As for `Cc1[nH]n2c(=O)cc(-c3ccccc3Cl)nc2c1-c1ccccc1`, the survival is active: -3%.

`N#CCCSCc1ccc(C(=O)O)o1`: the survival is inactive: 112%.

Turning to `CCn1c(SCc2ccccc2)nnc1-c1nonc1NC(C)=O`, the survival is inactive: 107%.

As to `Cc1ccccc1CNC(=O)c1ccc(NC(=O)c2nsc3ccccc23)cc1`, the survival is inactive: 84%.

Turning to `CCn1c(=O)cc(SCC(=O)Nc2ccc(C)c(F)c2)c2ccccc21`, the survival was inactive: 89%.

On to `O=C(Cn1c(=O)oc2cc(S(=O)(=O)N3CCCCCC3)ccc21)Nc1cccc(C(F)(F)F)c1`, for which the survival was inactive: 84%.

`O=C1Cc2cc(S(=O)(=O)N3CCN(c4ccccc4)CC3)ccc2N1`: the survival was inactive: 81%.

Consider `Cc1ccccc1Nc1sc(C(=O)c2ccc3c(c2)OCO3)c(N)c1S(=O)(=O)c1ccccc1`, for which the survival was inactive: 78%.

Turning to `O=S1(=O)N=C(N(Cc2ccco2)c2ccc(O)cc2)c2ccccc21`, the survival was inactive: 115%.

Regarding `Cc1ccc(N2CC3=C(C2=O)C(c2ccc(Br)cc2)NC(=O)N3C)cc1` (stereo unspecified), the survival is inactive: 74%.
